Laboratory results from the supplement of paper PMC4466236.
Whole data set: some 33,000 sequences, median “E-score (dimensionless, -0.5 to 0.5)” near -0.058, cut for the highest 2% near 0.35. This is one part of the list.

system: MvaT; test: PBM 8-mer E-score (mean of HK and ME arrays) (E-score (dimensionless, -0.5 to 0.5)); higher = stronger relative binding preference; most listed sequences are background and not binding sites
Summary of the method: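 Full-length P. aeruginosa MvaT carrying an N-terminal glutathione S-transferase tag was tested by protein binding microarray following a previously described protocol. Two universal double-stranded 60-mer arrays, ME and HK, were used, each with a constant 25-mer primer region and a variable 35-mer region covering all 8-mers. The rank-based E-score is the mean of the two arrays, parsed with a custom script. Its range runs from -0.5 to 0.5 for each 8-mer.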

Row | Sequence | PBM 8-mer E-score
1 | AAAGCCCC | -0.306
2 | CAGAGAAA | -0.00544
3 | ATCGTGTC | -0.0975
4 | AATTTACG | 0.241
5 | ACCAGTCG | -0.162
6 | AAGTCGGC | -0.0898
7 | GAGATGCA | -0.155
8 | ATGCTGGG | -0.0999
9 | AGGCGAAT | 0.153
10 | GGTACGAA | -0.031
11 | GCTCACAC | -0.19
12 | CAATCCCA | -0.0152
13 | ATACATGG | 0.0464
14 | CGCTTGAA | -0.0274
15 | AAACAATC | 0.06
16 | ATTAATGA | 0.363
17 | ACGTGAGG | -0.104
18 | ATCAGAGG | -0.21
19 | CAGACCGG | -0.125
20 | CTGAATCA | -0.061
21 | GCATGGAC | -0.155
22 | GTTGTTTA | 0.181
23 | AGGCCAAC | -0.137
24 | CGAGACAC | -0.128
25 | ACTCTAGA | 0.0846

Row | Sequence | PBM 8-mer E-score
26 | ATCTTGGA | 0.0448
27 | ATAAACGA | 0.284
28 | CAACGACG | -0.0325
29 | AGCGTGTG | -0.0365
30 | GCGGCCGC | -0.206
31 | ACGAAGTC | -0.289
32 | ACACTCAT | 0.0197
33 | CCCTAATC | -0.103
34 | CATGCCCA | -0.15
35 | ACGAAAGG | -0.0998
36 | GCGGTTAA | 0.119
37 | GACCTAGC | -0.145
38 | CTCGTGAA | -0.224
39 | CCATCGGA | -0.255
40 | CACGAGAA | -0.135
41 | GCTTTTAC | -0.0486
42 | GTGAACGA | -0.0266
43 | ACGGTTTA | 0.136
44 | ACTTATCT | 0.262
45 | AGAGGCCG | -0.259
46 | ATATAAAA | 0.431
47 | CCGGCACA | 0.0625
48 | GCATAACA | 0.0163
49 | CGATCGAG | -0.137
50 | ATTGATGC | -0.151

Row | Sequence | PBM 8-mer E-score
51 | GACGTCAA | -0.0837
52 | ACGCGTCT | -0.0662
53 | AGTGCCCG | -0.199
54 | CTGCGCTC | -0.103
55 | GCAAGTGC | -0.0178
56 | AACCCTAA | -0.00373
57 | ATAGAAGG | -0.18
58 | AGCCCCTG | -0.262
59 | ATGATGTG | 0.0462
60 | ATAGGTCC | -0.182
61 | AACGTAAA | 0.22
62 | AACGGCGC | -0.0108
63 | CGTCCGAA | -0.119
64 | GTCTTTTA | 0.21
65 | CACGGCAG | -0.214
66 | AGATTTTC | -0.143
67 | CGTCAGAC | -0.24
68 | ACAGGGCC | -0.038
69 | AACCGTTG | -0.0901
70 | CGTGGACA | -0.0353
71 | ACGGTCGA | -0.241
72 | CGCATGCG | -0.12
73 | AAAACTGC | 0.0676
74 | CTAGGAAC | -0.145
75 | CTACAGCC | -0.106

Row | Sequence | PBM 8-mer E-score
76 | AAAGCCGT | -0.118
77 | CTGAATGA | -0.134
78 | GCACGGGC | -0.125
79 | ATCTTTTA | 0.249
80 | ACTCAGGA | -0.116
81 | GCCGCGCA | -0.162
82 | AAGATCGG | -0.106
83 | GCGGTAAC | -0.191
84 | AAAACGTG | -0.151
85 | AACGAAGA | 0.03
86 | GGCCGAAA | -0.059
87 | CTCCTTGC | -0.19
88 | AGAATGGG | -0.133
89 | CCTATGGC | -0.289
90 | AAACGGTC | -0.208
91 | ATGGAACA | 0.137
92 | AGGGAAAC | -0.0837
93 | TATGATCA | 0.241
94 | AGAGGTAA | 0.0272
95 | GATCCGAA | 0.0726
96 | CCCTTAGC | -0.265
97 | CGTTAAAC | 0.141
98 | CACTAAAA | 0.225
99 | GGAAAAGA | -0.0229
100 | ATTACGGA | 0.227

Row | Sequence | PBM 8-mer E-score
101 | AGGATCTA | -0.157
102 | GATGTAAA | 0.151
103 | TCGTAACA | -0.0611
104 | AATCCCGT | 0.00366
105 | GGCCGCAC | -0.267
106 | AATTCAAC | 0.191
107 | CGATGGAC | -0.23
108 | ATATTTGG | 0.177
109 | CTCCGGAA | -0.063
110 | GACTACGC | -0.144
111 | ACTATCCG | 0.111
112 | TCTTTCCA | 0.0162
113 | CCAGCCCG | -0.177
114 | CCTACAGG | -0.26
115 | ATAACAAG | 0.283
116 | AAAGGTAA | 0.139
117 | AAAAGTTA | 0.371
118 | ACTTTCGA | 0.0758
119 | GCGTACGC | -0.236
120 | GGCAGTGA | -0.221
121 | CAAAAGAG | -0.111
122 | AATCGGCA | -0.0906
123 | CTCACTGA | -0.186
124 | CACCGGCC | -0.202
125 | GGGCAGAC | -0.296

Row | Sequence | PBM 8-mer E-score
126 | GGAGACCC | -0.244
127 | GCATGACA | -0.249
128 | CTTCGGCC | -0.145
129 | ATAGACAT | -0.0368
130 | AACCAAAT | 0.233
131 | CTGCGTTA | -0.0902
132 | GATTGCCA | 0.0164
133 | AGTAGGGG | -0.227
134 | AGTCTTCA | 0.0759
135 | AAAGTTGT | 0.264
136 | AACGAGGC | -0.0813
137 | ATTATGAG | 0.222
138 | ATCCACAG | -0.00723
139 | ATTAGACG | 0.108
140 | ATTGAATA | 0.234
141 | CGAACGGC | -0.123
142 | GGCTGTGA | -0.0788
143 | GAGCAACC | -0.232
144 | GACGTCCC | -0.261
145 | AGAACATG | 0.0469
146 | CCAACGGG | -0.262
147 | CGGTATCA | 0.0368
148 | TGCTTAAA | 0.287
149 | GCCCTTCA | -0.316
150 | CATGTATC | 0.12

Row | Sequence | PBM 8-mer E-score
151 | AGGTCGGA | -0.238
152 | AGCGTAAT | 0.165
153 | TAAACCAA | 0.338
154 | ATTTACTC | 0.0973
155 | AGGATGTG | -0.0802
156 | ACGGGCCG | -0.277
157 | TCCAGTCA | -0.0459
158 | GATTTAGC | 0.024
159 | CGGCTGCC | -0.286
160 | GGTCTCCA | -0.116
161 | GAGTCTTA | 0.0735
162 | AATTACGA | 0.298
163 | CCTTGACG | -0.249
164 | AGAGCGTG | -0.0625
165 | CCATGACC | -0.276
166 | AGCCGCGC | -0.221
167 | CCTTCCAG | -0.288
168 | GGCCCGCA | -0.33
169 | AGATGCCA | -0.166
170 | AATGAAGA | 0.166
171 | AGGTGGCC | -0.221
172 | CACAAGGG | -0.238
173 | ACACAGGT | -0.0956
174 | AGTGGGAC | 0.00019
